Results published in PMC6879585.
These are yes or no findings as the source states them, for the method shown. For some assays here: Binding seen in cells or lysates may run through a third protein. Some results given as binding are weak or reduced against the parent protein; the word gives no strength.

Amino acid sequences for entries named in this document (tags omitted). A change or cut given only in a name is not applied to a line headed by its entry.
UniProt P52294: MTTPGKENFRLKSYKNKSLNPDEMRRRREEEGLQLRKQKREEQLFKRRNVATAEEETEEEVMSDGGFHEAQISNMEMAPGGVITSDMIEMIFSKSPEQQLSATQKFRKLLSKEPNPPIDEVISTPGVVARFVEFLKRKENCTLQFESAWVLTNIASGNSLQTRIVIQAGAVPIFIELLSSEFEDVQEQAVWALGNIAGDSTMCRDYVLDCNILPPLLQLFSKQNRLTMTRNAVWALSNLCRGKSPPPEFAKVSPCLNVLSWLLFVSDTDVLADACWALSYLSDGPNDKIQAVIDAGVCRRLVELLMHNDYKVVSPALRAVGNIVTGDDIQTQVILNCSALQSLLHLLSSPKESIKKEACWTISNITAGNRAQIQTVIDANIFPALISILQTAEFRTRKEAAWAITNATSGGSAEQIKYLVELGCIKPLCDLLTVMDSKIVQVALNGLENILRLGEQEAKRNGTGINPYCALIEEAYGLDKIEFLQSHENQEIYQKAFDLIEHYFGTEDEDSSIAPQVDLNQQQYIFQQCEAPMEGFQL
UniProt Q8N122: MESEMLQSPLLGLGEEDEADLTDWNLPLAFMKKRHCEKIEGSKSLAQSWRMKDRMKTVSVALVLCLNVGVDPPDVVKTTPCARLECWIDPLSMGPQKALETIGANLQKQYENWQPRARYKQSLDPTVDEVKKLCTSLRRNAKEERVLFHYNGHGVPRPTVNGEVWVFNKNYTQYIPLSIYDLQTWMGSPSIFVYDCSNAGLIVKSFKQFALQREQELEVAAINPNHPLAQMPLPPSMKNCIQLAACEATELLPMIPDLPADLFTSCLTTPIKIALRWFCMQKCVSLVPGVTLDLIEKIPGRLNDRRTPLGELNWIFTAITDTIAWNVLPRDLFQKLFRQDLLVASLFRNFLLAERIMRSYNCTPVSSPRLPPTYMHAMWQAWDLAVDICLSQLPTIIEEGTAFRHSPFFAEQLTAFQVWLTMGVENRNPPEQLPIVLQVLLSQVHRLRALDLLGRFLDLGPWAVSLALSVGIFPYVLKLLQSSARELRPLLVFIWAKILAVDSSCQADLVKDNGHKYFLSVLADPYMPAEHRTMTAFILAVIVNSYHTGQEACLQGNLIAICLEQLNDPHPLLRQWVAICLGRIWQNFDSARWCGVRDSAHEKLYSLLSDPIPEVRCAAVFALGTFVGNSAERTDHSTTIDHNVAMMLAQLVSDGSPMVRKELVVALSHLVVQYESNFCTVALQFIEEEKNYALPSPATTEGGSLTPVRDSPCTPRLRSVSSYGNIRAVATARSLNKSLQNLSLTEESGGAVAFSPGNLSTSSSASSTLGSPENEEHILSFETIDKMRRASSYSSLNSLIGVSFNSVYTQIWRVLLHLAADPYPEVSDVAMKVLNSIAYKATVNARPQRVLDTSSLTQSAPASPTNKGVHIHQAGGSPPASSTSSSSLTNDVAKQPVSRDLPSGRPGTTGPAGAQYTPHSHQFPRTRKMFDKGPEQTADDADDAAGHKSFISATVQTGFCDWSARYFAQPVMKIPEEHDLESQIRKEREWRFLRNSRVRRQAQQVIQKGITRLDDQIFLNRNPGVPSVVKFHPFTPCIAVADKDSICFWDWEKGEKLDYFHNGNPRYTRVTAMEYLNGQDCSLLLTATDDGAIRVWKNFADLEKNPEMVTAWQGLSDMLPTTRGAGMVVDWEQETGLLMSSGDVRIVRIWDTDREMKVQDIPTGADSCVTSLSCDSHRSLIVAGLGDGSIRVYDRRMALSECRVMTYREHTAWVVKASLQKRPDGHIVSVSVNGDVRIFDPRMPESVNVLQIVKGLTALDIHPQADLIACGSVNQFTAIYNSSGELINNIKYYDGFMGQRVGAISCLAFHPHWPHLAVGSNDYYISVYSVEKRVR
UniProt Q6R327: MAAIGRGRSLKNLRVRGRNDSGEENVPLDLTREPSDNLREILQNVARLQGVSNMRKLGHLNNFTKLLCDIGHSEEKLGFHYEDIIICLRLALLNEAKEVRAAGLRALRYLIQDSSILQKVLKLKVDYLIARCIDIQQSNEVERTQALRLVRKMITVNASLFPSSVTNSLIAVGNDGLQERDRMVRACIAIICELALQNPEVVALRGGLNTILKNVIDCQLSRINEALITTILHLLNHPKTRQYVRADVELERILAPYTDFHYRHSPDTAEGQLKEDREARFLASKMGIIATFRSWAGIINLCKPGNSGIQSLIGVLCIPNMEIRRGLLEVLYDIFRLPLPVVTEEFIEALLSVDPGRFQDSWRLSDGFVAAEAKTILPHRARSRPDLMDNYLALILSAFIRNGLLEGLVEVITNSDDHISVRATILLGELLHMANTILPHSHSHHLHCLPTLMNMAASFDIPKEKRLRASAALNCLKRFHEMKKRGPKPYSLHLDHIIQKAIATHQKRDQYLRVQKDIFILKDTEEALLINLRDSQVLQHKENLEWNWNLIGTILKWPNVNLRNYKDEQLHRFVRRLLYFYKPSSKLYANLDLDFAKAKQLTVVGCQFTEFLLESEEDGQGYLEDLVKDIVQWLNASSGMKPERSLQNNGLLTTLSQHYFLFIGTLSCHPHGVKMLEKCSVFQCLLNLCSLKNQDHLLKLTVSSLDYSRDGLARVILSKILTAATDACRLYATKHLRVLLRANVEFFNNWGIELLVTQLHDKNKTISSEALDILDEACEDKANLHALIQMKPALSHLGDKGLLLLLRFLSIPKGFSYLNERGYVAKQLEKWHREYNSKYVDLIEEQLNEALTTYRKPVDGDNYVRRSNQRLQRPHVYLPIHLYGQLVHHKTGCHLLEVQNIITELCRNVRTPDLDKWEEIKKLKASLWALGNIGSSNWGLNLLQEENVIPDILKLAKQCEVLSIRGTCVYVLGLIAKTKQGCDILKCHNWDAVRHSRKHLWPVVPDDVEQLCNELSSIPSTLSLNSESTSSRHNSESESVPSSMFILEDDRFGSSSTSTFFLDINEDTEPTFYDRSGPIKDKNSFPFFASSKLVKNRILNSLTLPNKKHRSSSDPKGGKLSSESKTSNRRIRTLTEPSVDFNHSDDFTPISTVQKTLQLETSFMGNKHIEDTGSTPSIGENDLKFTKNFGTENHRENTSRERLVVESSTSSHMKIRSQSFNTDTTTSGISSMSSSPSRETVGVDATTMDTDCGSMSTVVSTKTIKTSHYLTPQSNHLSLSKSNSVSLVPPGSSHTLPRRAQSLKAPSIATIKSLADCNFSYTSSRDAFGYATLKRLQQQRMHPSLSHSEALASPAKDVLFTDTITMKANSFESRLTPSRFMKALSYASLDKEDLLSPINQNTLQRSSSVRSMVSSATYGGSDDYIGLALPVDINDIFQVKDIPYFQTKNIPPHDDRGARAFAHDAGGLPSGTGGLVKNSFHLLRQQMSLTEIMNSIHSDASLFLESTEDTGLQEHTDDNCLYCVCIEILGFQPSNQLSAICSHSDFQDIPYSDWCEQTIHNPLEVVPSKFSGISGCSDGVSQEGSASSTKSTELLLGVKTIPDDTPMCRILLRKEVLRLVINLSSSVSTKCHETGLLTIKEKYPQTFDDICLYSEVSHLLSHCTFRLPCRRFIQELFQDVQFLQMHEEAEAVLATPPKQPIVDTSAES
UniProt Q05655: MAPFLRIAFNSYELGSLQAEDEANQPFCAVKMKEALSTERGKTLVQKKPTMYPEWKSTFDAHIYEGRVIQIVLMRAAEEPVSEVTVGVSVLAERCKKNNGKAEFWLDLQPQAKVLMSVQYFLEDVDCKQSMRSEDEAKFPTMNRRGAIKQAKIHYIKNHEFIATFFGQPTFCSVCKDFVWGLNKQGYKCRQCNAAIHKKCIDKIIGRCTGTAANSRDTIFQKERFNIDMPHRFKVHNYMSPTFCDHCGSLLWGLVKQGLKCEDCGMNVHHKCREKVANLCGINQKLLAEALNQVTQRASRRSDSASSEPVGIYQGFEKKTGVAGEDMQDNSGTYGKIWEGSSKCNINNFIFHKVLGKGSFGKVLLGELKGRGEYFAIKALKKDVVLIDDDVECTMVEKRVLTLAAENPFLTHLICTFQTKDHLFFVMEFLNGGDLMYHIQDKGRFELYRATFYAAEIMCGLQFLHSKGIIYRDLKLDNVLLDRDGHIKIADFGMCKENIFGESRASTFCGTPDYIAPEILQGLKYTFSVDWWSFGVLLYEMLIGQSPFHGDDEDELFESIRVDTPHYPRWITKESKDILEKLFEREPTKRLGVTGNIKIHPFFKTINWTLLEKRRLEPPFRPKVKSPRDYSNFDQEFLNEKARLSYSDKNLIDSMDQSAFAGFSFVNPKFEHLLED

Key:
[1] = biological target: KPNA1 (WT) linked to a complementary fragment of Venus yellow fluorescence protein (UniProt P52294); experiment: split reporter; protein fragment complementation assay: Venus YFP fragments VF1 and VF2 fused to the two proteins, co-transfected 1:1 in COS7; fluorescence (ex 512 nm, em 529 nm) per cell
V5-CFP-KPNA1 [2] = biological target: V5-CFP-KPNA1 (UniProt P52294); experiment: co-IP; anti-V5 antibody (5 μg, overnight, 4 °C) and Protein G Sepharose on HEK293T whole cell lysates (20 mM Tris pH 8.0, 0.3% CHAPS); washed with PBS 0.3% CHAPS; Western blot; for V5-CFP-KPNA1 cells without or with rapamycin 50 ng/ml, 30 min
V5-CFP-KPNA1 [3] = biological target: V5-CFP-KPNA1 (UniProt P52294); experiment: co-IP; anti-V5 immunoprecipitation from nuclear lysates of HEK293T cells expressing V5-CFP-KPNA1, rapamycin 50 ng/ml for 0 or 30 min; control IgG; Western blot
[4] = biological target: raptor (endogenous, Supplementary Fig. S1D and S1E,F) (UniProt Q8N122); experiment: co-elution in ion exchange chromatography fractions; endogenous proteins in ion exchange chromatography fractions previously shown to contain STAT1 and the mTOR-associated phosphatases; Supplementary Fig. S1D
[5] = biological target: rictor (endogenous, ion exchange fractions of Supplementary Fig. S1D) (UniProt Q6R327); experiment: as above
[6] = biological target: PKCδ (WT) linked to a complementary fragment of Venus yellow fluorescence protein (human) (UniProt Q05655); experiment: split reporter; protein fragment complementation assay: Venus YFP fragments VF1 and VF2 fused to the two proteins, co-transfected 1:1 in COS7; fluorescence (ex 512 nm, em 529 nm) per cell
[7] = biological target: PKCδ F425I linked to a complementary fragment of Venus yellow fluorescence protein (human) (UniProt Q05655); experiment: as above
[8] = biological target: V5-CFP-PKCδ F425I (human) (UniProt Q05655); experiment: co-IP; anti-V5 antibody (5 μg, overnight, 4 °C) and Protein G Sepharose on HEK293T whole cell lysates (20 mM Tris pH 8.0, 0.3% CHAPS); washed with PBS 0.3% CHAPS; Western blot; for V5-CFP-KPNA1 cells without or with rapamycin 50 ng/ml, 30 min
V5-CFP-WT PKCδ (human) = V5-CFP-WT PKCδ (human) (UniProt Q05655); experiment: as above

## PKCδ (WT) linked to a complementary fragment of Venus yellow fluorescence protein (from UniProt Q05655 1-676) (enzyme)
[1]
  binding: binds

## PKCδ (endogenous, HEK293T) (from UniProt Q05655 1-676) (enzyme)
V5-CFP-KPNA1 [2]
  binding: binds
V5-CFP-KPNA1 [3]
  binding: binds

## PKCδ (endogenous, ion exchange fractions of Supplementary Fig. S1D) (from UniProt Q05655 1-676) (enzyme)
[4]
  binding: binds
[5]
  binding: no binding

## raptor (WT) linked to a complementary fragment of Venus yellow fluorescence protein (from UniProt Q8N122 1-1335)
[6]
  binding: binds
[7]
  binding: no binding

## raptor (endogenous, HEK293T) (from UniProt Q8N122 1-1335)
[8]
  binding: no binding
V5-CFP-KPNA1 [2]
  binding: binds
V5-CFP-WT PKCδ (human)
  binding: binds
V5-CFP-KPNA1 [3]
  binding: binds
